From patent US20050054047A1 (Amgen, published 2005)

Target: T1, human full length TWEAK (human, UniProt O43508 1-249)
T1 construct: whole, on cells; CV-1 cells transfected with full length TWEAK were mixed 1:30 with Raji cells; also called TWEAK ligand
T1 sequence (looked up): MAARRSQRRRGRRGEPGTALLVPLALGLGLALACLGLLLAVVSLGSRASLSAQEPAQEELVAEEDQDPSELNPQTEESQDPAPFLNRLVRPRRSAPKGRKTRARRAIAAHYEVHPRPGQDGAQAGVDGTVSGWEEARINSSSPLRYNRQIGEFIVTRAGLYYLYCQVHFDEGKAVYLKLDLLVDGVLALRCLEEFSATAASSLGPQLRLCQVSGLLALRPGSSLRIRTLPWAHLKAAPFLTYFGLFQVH
Test: Scatchard analysis, 125-I labeled TWEAKR-Fc on CV-1 cells transfected with full length TWEAK, 4 degrees C
Method: The cells were incubated with serial dilutions of 125-I labeled human TWEAK receptor-Fc for 2 hours at 4 degrees Celsius. Free and bound probe was separated by microfuging the samples through a phalate oil mixture in plastic tubes. Supernatants and pellets were gamma-counted.

Ka: ~4.5e+08 M⁻¹
B1: TWEAKR-Fc (Fc fusion)
chain: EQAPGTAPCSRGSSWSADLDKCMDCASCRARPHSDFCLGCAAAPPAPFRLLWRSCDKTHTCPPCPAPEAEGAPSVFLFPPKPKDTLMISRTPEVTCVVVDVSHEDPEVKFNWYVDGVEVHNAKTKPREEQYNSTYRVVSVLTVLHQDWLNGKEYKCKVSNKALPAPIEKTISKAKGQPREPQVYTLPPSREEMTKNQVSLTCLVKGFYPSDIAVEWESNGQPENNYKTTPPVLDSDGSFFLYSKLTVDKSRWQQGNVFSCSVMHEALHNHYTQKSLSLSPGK
notes: In the Scatchard analysis the protein was 125-I labeled; also called huTWEAKR:Fc; human TWEAK receptor-Fc
